Laboratory results reported in article PMC3431309.
No constants are given. Whether binding was seen depends on the method and setting. Binding seen in cells or lysates may run through a third protein. Some entries that bind do so weakly or less than the wild type. Blank lines part the entries; values can stand above or below the binder they belong to.

Amino acid sequences for entries named in this document (tags omitted).
UniProt P40160: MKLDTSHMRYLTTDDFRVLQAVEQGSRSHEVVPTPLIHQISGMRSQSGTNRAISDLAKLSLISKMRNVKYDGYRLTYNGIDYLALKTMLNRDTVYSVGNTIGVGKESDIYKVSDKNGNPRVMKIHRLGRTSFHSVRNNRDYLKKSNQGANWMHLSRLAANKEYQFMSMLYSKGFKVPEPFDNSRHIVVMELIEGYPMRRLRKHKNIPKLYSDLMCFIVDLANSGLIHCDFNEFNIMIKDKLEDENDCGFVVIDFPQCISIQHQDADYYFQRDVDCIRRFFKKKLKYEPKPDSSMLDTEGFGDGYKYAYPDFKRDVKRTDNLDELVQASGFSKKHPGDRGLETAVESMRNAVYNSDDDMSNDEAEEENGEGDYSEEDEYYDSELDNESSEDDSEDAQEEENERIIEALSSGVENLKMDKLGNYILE

Legend:
Enp1-TAP (S. cerevisiae) = biological target: T1, Enp1-TAP (S. cerevisiae) (UniProt P38333); experiment: co-IP; tandem affinity purification (TAP) of pre-ribosomal particles via TAP-tagged bait from yeast lysate; lysis buffer 50 mM Tris-HCl pH 7.5, 75 mM NaCl, 1.5 mM MgCl2, 0.15% NP-40; calmodulin-sepharose eluates analysed by Western blot; also from slx9Δ, mex67Δloop and mtr2Δloop116-137 strains
T1 sequence: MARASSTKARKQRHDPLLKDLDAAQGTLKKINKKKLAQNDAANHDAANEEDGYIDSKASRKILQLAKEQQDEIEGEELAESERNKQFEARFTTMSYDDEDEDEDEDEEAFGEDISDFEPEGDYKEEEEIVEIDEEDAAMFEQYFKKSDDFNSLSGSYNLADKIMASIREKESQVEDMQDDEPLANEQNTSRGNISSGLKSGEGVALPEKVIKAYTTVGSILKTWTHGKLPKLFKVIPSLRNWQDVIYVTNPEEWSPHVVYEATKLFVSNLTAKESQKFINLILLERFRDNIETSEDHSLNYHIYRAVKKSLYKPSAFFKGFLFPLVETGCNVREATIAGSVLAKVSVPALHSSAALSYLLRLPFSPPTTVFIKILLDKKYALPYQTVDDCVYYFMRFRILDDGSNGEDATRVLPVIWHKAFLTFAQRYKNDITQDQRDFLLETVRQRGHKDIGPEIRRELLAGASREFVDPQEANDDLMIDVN

Noc4-TAP (S. cerevisiae) = biological target: T2, Noc4-TAP (S. cerevisiae) (UniProt Q06512); experiment: as above
T2 sequence: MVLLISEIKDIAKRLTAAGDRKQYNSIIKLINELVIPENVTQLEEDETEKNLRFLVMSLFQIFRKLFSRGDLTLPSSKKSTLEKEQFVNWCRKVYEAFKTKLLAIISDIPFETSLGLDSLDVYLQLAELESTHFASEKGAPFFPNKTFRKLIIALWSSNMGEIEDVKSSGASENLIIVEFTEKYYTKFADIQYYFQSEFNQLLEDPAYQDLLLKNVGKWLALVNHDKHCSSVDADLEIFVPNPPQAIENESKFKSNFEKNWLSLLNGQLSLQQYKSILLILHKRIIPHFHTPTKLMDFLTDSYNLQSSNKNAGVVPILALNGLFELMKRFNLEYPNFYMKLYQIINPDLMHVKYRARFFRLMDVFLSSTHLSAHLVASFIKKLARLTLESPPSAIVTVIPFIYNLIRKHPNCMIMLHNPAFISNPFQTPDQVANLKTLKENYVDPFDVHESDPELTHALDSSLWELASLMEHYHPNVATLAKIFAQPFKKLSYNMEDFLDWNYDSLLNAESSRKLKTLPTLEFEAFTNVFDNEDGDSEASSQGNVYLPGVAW

Rio2-TAP (S. cerevisiae) [1] = biological target: Rio2-TAP (S. cerevisiae) (UniProt P40160); experiment: as above
Rio2-TAP (S. cerevisiae) [2] = biological target: Rio2-TAP (S. cerevisiae) (UniProt P40160); experiment: co-IP; Rio2-TAP purified with lysis buffer of 50 mM NaCl; calmodulin-sepharose eluate, Western blot
Rio2-TAP (S. cerevisiae) [3] = biological target: Rio2-TAP (S. cerevisiae) (UniProt P40160); experiment: co-IP; Rio2-TAP purified with lysis buffer of 100 mM NaCl; calmodulin-sepharose eluate, Western blot
Arx1-TAP (S. cerevisiae) = biological target: T3, Arx1-TAP (S. cerevisiae) (UniProt Q03862); experiment: co-IP; tandem affinity purification (TAP) of pre-ribosomal particles via TAP-tagged bait from yeast lysate; lysis buffer 50 mM Tris-HCl pH 7.5, 75 mM NaCl, 1.5 mM MgCl2, 0.15% NP-40; calmodulin-sepharose eluates analysed by Western blot; also from slx9Δ, mex67Δloop and mtr2Δloop116-137 strains
T3 sequence: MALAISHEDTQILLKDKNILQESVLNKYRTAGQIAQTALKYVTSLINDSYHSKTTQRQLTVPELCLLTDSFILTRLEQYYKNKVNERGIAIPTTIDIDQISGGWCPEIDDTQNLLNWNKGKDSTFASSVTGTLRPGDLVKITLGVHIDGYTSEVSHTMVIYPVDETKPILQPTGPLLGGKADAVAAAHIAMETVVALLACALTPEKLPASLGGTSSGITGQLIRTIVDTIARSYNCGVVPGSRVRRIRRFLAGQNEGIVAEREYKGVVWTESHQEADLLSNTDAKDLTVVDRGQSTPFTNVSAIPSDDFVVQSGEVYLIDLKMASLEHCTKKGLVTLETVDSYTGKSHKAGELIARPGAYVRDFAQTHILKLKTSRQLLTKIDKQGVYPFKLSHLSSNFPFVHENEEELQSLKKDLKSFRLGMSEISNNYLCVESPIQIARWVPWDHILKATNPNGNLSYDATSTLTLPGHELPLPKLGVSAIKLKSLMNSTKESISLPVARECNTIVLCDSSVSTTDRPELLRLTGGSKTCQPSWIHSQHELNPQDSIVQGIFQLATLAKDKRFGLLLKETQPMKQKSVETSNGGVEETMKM

[4] = biological target: T4, Hrr25-TAP (S. cerevisiae) (UniProt P29295); experiment: as above
T4 sequence: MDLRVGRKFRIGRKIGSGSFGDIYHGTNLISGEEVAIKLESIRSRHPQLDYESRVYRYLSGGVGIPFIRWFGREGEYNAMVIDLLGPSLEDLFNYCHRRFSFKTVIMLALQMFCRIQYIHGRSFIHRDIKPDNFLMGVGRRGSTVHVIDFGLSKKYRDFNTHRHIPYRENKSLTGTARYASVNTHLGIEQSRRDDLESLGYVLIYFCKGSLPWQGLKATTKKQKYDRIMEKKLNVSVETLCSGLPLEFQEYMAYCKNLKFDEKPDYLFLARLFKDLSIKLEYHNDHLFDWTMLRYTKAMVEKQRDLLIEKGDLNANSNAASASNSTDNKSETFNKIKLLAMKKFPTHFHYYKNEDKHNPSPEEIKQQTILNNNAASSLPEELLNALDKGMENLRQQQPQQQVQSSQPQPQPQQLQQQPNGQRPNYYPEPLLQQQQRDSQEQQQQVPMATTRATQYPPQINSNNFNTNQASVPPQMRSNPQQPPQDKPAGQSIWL

binding (Enp1-TAP (S. cerevisiae)): binds
binding (Noc4-TAP (S. cerevisiae)): binds weakly
binding (Rio2-TAP (S. cerevisiae) [1]): binds weakly
B1: Slx9 (protein, UniProt P53251 1-210)
chain: MVAKKRNTLRSKVSARNSQNFGPDVANNGILDESYDIESDPRAFLHQPKETKKEKLLNRQNTFLSNLKGKSTLNDGIAANFDGISKSSIRRRKRKLREELKPRMQDLLTSLEQEKDLRGIIENSSKDMNNDDDIDMDSKIRFVDTKEMNLKKIEPGSVRIKKNQPNIRNQKGAKALAANETARFNQVLTNQDFQKNPFGALREVIKLQKQ

binding (Rio2-TAP (S. cerevisiae) [2]): binds
binding (Rio2-TAP (S. cerevisiae) [3]): no binding (condition: at 100 mM NaCl)
binding (Arx1-TAP (S. cerevisiae)): binds
binding (Enp1-TAP (S. cerevisiae)): binds
binding [4]: binds
binding (Noc4-TAP (S. cerevisiae)): binds
binding (Rio2-TAP (S. cerevisiae) [1]): binds
B2: Mex67-Mtr2 (complex, UniProt Q99257 1-599; P34232 1-184)
chain 1: MSGFHNVGNINMMAQQQMQQNRIKISVRNWQNATMNDLINFISRNARVAVYDAHVEGPLVIGYVNSKAEAESLMKWNGVRFAGSNLKFELLDNNGASAGTSDTISFLRGVLLKRYDPQTKLLNLGALHSDPELIQKGVFSSISTQSKMFPAMMKLASTEKSLIVESVNLADNQLKDISAISTLAQTFPNLKNLCLANNQIFRFRSLEVWKNKFKDLRELLMTNNPITTDKLYRTEMLRLFPKLVVLDNVIVRDEQKLQTVYSLPMKIQQFFFENDALGQSSTDFATNFLNLWDNNREQLLNLYSPQSQFSVSVDSTIPPSTVTDSDQTPAFGYYMSSSRNISKVSSEKSIQQRLSIGQESINSIFKTLPKTKHHLQEQPNEYSMETISYPQINGFVITLHGFFEETGKPELESNKKTGKNNYQKNRRYNHGYNSTSNNKLSKKSFDRTWVIVPMNNSVIIASDLLTVRAYSTGAWKTASIAIAQPPQQQASVLPQVASMNPNITTPPQPQPSVVPGGMSIPGAPQGAMVMAPTLQLPPDVQSRLNPVQLELLNKLHLETKLNAEYTFMLAEQSNWNYEVAIKGFQSSMNGIPREAFVQF
chain 2: MNTNSNTMVMNDANQAQITATFTKKILAHLDDPDSNKLAQFVQLFNPNNCRIIFNATPFAQATVFLQMWQNQVVQTQHALTGVDYHAIPGSGTLICNVNCKVRFDESGRDKMGQDATVPIQPNNTGNRNRPNDMNKPRPLWGPYFGISLQLIIDDRIFRNDFNGVISGFNYNMVYKPEDSLLKI

binding (Enp1-TAP (S. cerevisiae)): no binding
binding (Rio2-TAP (S. cerevisiae) [1]): no binding
B3: Mex67Δloop-Mtr2 (complex, UniProt Q99257 1-599; P34232 1-184)
chain 1: MSGFHNVGNINMMAQQQMQQNRIKISVRNWQNATMNDLINFISRNARVAVYDAHVEGPLVIGYVNSKAEAESLMKWNGVRFAGSNLKFELLDNNGASAGTSDTISFLRGVLLKRYDPQTKLLNLGALHSDPELIQKGVFSSISTQSKMFPAMMKLASTEKSLIVESVNLADNQLKDISAISTLAQTFPNLKNLCLANNQIFRFRSLEVWKNKFKDLRELLMTNNPITTDKLYRTEMLRLFPKLVVLDNVIVRDEQKLQTVYSLPMKIQQFFFENDALGQSSTDFATNFLNLWDNNREQLLNLYSPQSQFSVSVDSTIPPSTVTDSDQTPAFGYYMSSSRNISKVSSEKSIQQRLSIGQESINSIFKTLPKTKHHLQEQPNEYSMETISYPQINGFVITLHGFFEETGKSNNKLSKKSFDRTWVIVPMNNSVIIASDLLTVRAYSTGAWKTASIAIAQPPQQQASVLPQVASMNPNITTPPQPQPSVVPGGMSIPGAPQGAMVMAPTLQLPPDVQSRLNPVQLELLNKLHLETKLNAEYTFMLAEQSNWNYEVAIKGFQSSMNGIPREAFVQF
chain 2: B2 chain 2

binding (Enp1-TAP (S. cerevisiae)): no binding
binding (Rio2-TAP (S. cerevisiae) [1]): no binding
B4: Mex67-Mtr2Δloop116-137 (complex, UniProt Q99257 1-599; P34232 1-184)
chain 1: B2 chain 1
chain 2: MNTNSNTMVMNDANQAQITATFTKKILAHLDDPDSNKLAQFVQLFNPNNCRIIFNATPFAQATVFLQMWQNQVVQTQHALTGVDYHAIPGSGTLICNVNCKVRFDESGRDKMGQDRPLWGPYFGISLQLIIDDRIFRNDFNGVISGFNYNMVYKPEDSLLKI
